# Screen size: about 270,000 compounds; about 5,800 (2.1%) were called active. Inconclusive results, whose numbers are uncertain, are shown with a selection of clear calls. Calls follow the shape of the dose curve; as a rule, active = well fitted inhibition curve with a large enough effect; inconclusive = small, poorly fitted or top-dose-only effect; inactive = flat fitted curve, though single readings scatter. Potencies of inconclusive entries are doubtful fits and often do not repeat.
# Biological target: Microtubule-associated protein tau (Homo sapiens) (UniProt P10636)
# Assay: qHTS for Inhibitors of Tau Fibril Formation, Thioflavin T Binding; also: nearly all actives have a fitted effect of over 55% in size
# Conditions: recombinant tau K18 P301L (four-repeat tau fragment), heparin-induced fibrillization, ThT fluorescence; series mostly up to 57.4 µM
# Outline: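 Aggregation was driven by heparin (20 uM final) acting on recombinant tau […] bearing P301L in 100 mM sodium acetate pH 7; fibrils were detected with Thioflavin T.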
# Potency is read from the fitted curve at half-maximal effect; tags tell the direction and shape of the fitted curve.
# UniProt P10636, sequence (P10636 whole entry, looked up): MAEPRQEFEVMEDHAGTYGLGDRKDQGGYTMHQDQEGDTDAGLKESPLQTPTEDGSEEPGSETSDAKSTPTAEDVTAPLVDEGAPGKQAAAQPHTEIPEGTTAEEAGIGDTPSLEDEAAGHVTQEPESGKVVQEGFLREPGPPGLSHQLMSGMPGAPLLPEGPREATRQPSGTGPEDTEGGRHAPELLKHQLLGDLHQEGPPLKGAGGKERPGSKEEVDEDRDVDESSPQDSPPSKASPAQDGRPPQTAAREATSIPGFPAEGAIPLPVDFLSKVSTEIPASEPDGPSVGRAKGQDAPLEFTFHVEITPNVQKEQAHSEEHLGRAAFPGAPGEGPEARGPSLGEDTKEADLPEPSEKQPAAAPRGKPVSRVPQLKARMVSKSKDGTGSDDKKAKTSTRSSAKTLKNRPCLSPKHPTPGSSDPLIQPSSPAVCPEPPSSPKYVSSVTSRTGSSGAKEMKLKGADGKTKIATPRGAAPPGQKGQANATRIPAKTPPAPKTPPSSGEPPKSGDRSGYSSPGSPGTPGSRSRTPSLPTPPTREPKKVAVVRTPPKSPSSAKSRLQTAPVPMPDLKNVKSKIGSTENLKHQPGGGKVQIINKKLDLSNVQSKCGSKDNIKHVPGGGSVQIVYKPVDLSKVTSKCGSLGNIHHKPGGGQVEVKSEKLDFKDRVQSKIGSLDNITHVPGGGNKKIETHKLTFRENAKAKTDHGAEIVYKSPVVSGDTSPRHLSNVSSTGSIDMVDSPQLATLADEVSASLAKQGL
row,Structure (SMILES),Potency
1,Oc1ccccc1/C=N/Nc1nc2ccccc2o1,"inconclusive: 2 µM [inhibitor, full curve, poor fit]"
2,CCOC(=O)c1ccc(NC(=O)N2CCN(c3cccc(OC)c3)CC2)cc1,"inconclusive: 7.94 µM [inhibitor, partial curve]"
3,CN1CCSc2ccc(C(=O)NCc3ccccc3F)cc21,"inconclusive: 10 µM [inhibitor, partial curve]"
4,CCOC(=O)N1CCC(N2Cc3cccc(C(=O)Nc4cccc(F)c4)c3C2=O)CC1,"inconclusive: 5.01 µM [inhibitor, single point]"
5,CCc1ccc(Nc2nnc(SCC(=O)Nc3sccc3C(N)=O)s2)cc1,"inconclusive: 25.1 µM [inhibitor, partial curve]"
6,COc1ccc(CNC(=O)CN(c2ccc(OC)cc2)S(=O)(=O)c2c(C)nn(C)c2C)cc1,inactive
7,COc1cc2c(C(=O)N3CCN(C)CC3)c(C)n(-c3ccccc3)c2cc1Br,inactive
8,N#CC1=C2SCN(c3ccc(F)cc3)CN2C(=O)CC1c1cccc(F)c1 (configuration not stated),active: 15.8 µM
9,O=C1/C(=C\c2ccc(O)cc2)SC(=S)N1/N=C/c1ccc(O)cc1,active: 5.01 µM
10,COC(=O)c1c(C)sc(-c2c(-c3ccc4c(c3)OCCO4)[nH]c3[nH]c(=O)[nH]c(=O)c23)c1O,"inconclusive: 25.1 µM [inhibitor, partial curve]"
11,CCOc1ccccc1OCC(=O)Nc1ccc(N2CCCCC2)cc1,"inconclusive: 25.1 µM [inhibitor, partial curve]"
12,Cc1cc(C)c2c(n1)nn1c(C)c(CCC(=O)NCc3ccccc3Cl)c(C)nc21,"inconclusive: 14.1 µM [inhibitor, partial curve]"
13,Cc1cc(=S)[nH]c(=S)[nH]1,inactive
14,Cc1cccc(NC(=O)c2c(NC(=O)c3ccccc3)sc3c2CCCC3)c1,active: 10 µM
15,O=c1cc(C(F)(F)F)c2sc(N3CCCCC3)nc2[nH]1,"inconclusive: 10 µM [inhibitor, partial curve, poor fit]"
16,N#C/C(=C\c1ccc(Cl)s1)C(=O)N1CCN(c2ccccc2)CC1,"inconclusive: 15.8 µM [inhibitor, partial curve]"
17,CCCCOc1ccc(-c2nnc(N)s2)cc1,"inconclusive: 11.2 µM [inhibitor, partial curve]"
18,Clc1ccc(C(c2nnnn2C2CCCCC2)N(Cc2cccnc2)Cc2ccco2)cc1 (configuration not stated),"inconclusive: 17.8 µM [inhibitor, single point]"
19,O=C(Cn1cnc2cc([N+](=O)[O-])ccc2c1=O)Nc1cccc2ccccc12,"inconclusive: 10 µM [inhibitor, partial curve]"
20,COc1ccccc1-c1ccc(SCc2ccc([N+](=O)[O-])cc2)nn1,"inconclusive: 2.82 µM [inhibitor, full curve]"
21,S=C(Nc1cccnc1)Nc1cccc2cnccc12,active: 12.6 µM

row,Structure (SMILES),Potency
1,CC(=O)c1ccc(NC(=O)CCSCCC(=O)Nc2ccc(C(C)=O)cc2)cc1,"inconclusive: 3.55 µM [inhibitor, partial curve, poor fit]"
2,Nc1nonc1-n1nnc(C(=O)N/N=C/c2cc(Br)ccc2O)c1CSC1=NCCS1,"inconclusive: 39.8 µM [activator, single point]"
3,COC(=O)c1ccccc1NC(=O)CSc1nc(N)cc(=O)[nH]1,inactive
4,O=C(c1oc2ccccc2c1CSCc1ccccc1)N1CCN(c2ncccn2)CC1,inactive
5,Cc1nn2c(COc3ccc(NC(=O)c4ccccc4Cl)cc3)nnc2c2ccccc12,"inconclusive: 20 µM [inhibitor, partial curve]"
6,COc1cc(NC(=O)c2cc(OC)c(OC)c(OC)c2)c(OC)cc1NC(=O)CN1CCCCC1,"inconclusive: 20 µM [inhibitor, single point]"
7,CC(=O)c1ccc(N2CCN(C(=O)c3ccc(OCc4c(C)noc4C)cc3)CC2)cc1,"inconclusive: 22.4 µM [inhibitor, partial curve]"
8,CCC(Sc1nc2ccccc2c2nc(CCc3c(C)n[nH]c3C)nn12)C(=O)Nc1ccc(OC)cc1 (configuration not stated),"inconclusive: 28.2 µM [inhibitor, single point]"
9,COc1cc(C(=O)Nc2nc3c(s2)Cc2c(Br)ccc(OC)c2-3)cc(OC)c1OC,"inconclusive: 20 µM [inhibitor, partial curve]"
10,CC(C)=C1SC(N2CCN(c3ccc(C)cc3)CC2)=NC1=O,"inconclusive: 10 µM [inhibitor, partial curve]"
11,COc1cc([N+](=O)[O-])cc(/C=N/N(CCC#N)C(C)=O)c1O,"inconclusive: 31.6 µM [inhibitor, single point]"
12,C[C@]12CC[C@H]3C(=CCc4cc(O)ccc43)[C@@H]1CCC2=O,inactive
13,CCOC(=O)Cn1c(CN(Cc2ccccc2)Cc2ccccc2)nc2c1c(=O)n(C)c(=O)n2C,"inconclusive: 35.5 µM [inhibitor, single point]"
14,Cn1c(SCC(=O)Nc2ccc3[nH]c(=O)[nH]c3c2)nnc1-c1ccc(F)cc1,"inconclusive: 28.2 µM [inhibitor, partial curve]"
15,CC1(C)COC(/C=C/c2ccc([N+](=O)[O-])cc2)=N1,"inconclusive: 14.1 µM [inhibitor, partial curve]"
16,CCCN1C(=O)C2(C(C(=O)c3ccc(C)o3)=C(O)C(=O)N2CCCN2CCOCC2)c2ccccc21 (configuration not stated),"inconclusive: 31.6 µM [inhibitor, partial curve, poor fit]"
17,CCc1nc(SCc2ccc(Cl)cc2)n[nH]1,inactive
18,Cc1ccc2c(c1)sc1nc(-c3cc4ccccc4oc3=O)cn12,inactive
19,CCCCCC/C=C\CCCCCCCc1cccc(O)c1C(=O)O,"inconclusive: 17.8 µM [inhibitor, partial curve]"
20,COCC(C)n1c(C)cc(C(=O)COC(=O)c2c(C)nn(-c3ccccc3)c2C)c1C (configuration not stated),"inconclusive: 35.5 µM [inhibitor, single point]"
21,Cc1ccc(NC(=O)C(C)N2C(=O)c3ccccc3C2=O)cc1S(=O)(=O)N1CCOCC1 (configuration not stated),inactive
